Laboratory results published in PubChem BioAssay AID1159614 (National Center for Advancing Translational Sciences (NCATS), 2016).
Out of some 45,000 compounds screened, about 65 (0.1%) were called active. The call rests on the fitted dose curve; in most records, active means well fitted activation curve with a large enough effect; inconclusive means small, poorly fitted or top-dose-only effect; inactive means no such curve, though single readings can be large or run the other way. Some of the results follow.

target: Galactocerebrosidase (Homo sapiens) (UniProt P54803); experiment: A Novel Cell-Based Assay to Identify Small Molecules for B -Galactocerebrosidase; details: 145M-Twi-hGALC-G270D cells, HMU-beta-Gal fluorescence, 48 h; series mostly up to 57.5 µM; activation: at the top concentration; further: 0% is about no effect; nearly all actives have a fitted effect of over 65% in size
Procedure, shortened: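 qHTS, 1536-well; 145M-Twi-hGALC-G270D cells (WT line also made) in DMEM/F12 + 10% FBS; compound incubation on live cells; HMU-β-gal 0.1 mM final, pH 5.2, NaTC; carbonate stop; fluorescence increase = enhanced residual activity.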

UniProt P54803, sequence (P54803 whole entry, looked up): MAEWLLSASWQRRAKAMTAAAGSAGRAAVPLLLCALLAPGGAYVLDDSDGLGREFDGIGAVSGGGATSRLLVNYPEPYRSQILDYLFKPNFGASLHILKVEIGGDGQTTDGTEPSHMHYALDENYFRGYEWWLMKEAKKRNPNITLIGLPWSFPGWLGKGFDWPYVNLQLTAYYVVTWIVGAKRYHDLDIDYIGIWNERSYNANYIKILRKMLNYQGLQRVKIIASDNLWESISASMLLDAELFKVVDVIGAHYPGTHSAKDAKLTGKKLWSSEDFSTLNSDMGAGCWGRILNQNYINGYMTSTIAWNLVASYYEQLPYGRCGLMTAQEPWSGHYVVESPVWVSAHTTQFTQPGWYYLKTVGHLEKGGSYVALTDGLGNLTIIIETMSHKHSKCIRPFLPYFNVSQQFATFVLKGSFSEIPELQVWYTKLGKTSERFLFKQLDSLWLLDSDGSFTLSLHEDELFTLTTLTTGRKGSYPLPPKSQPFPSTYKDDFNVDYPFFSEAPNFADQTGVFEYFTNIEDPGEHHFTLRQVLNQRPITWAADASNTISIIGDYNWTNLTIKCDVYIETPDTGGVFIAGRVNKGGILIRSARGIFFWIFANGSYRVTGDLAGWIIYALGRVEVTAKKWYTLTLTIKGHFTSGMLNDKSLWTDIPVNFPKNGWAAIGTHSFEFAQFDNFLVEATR

activation, inactive:
Cc1ccc(OCC(=O)N(Cc2ccco2)C2CCS(=O)(=O)C2)cc1 (centres undefined) -6.23%
Cc1ccc(S(=O)(=O)NCC2CCC(C(=O)N(C)Cc3ccccc3)CC2)cc1 (centres undefined) -44.5%
COc1cccc(C2CC(=O)Nc3c2c(=O)n(C)c2ncnn32)c1OC (centres undefined) -8.15%
COC(=O)c1c(NC(=O)COc2cc(C)c(Cl)c(C)c2)sc2c1CCCC2 -15.7%
COc1ccc(OC)c(S(=O)(=O)Nc2cc3c(C(C)=O)c(C)oc3c3ccccc23)c1 -29.7%
COc1ccc(-c2nnc(SCC(=O)Nc3ccc(C(C)=O)cc3)nc2-c2ccc(OC)cc2)cc1 -26.5%
CCOc1ccc(NS(=O)(=O)c2ccc3c(c2)CCN3C(C)=O)cc1 -25.5%
Cc1cccc(NC(=O)c2sc3nc4c(cc3c2N)CN(Cc2ccccc2)CC4)c1 -5.75%
CCCCCCn1c(=O)c2c(ncn2C)n(C)c1=O -9.46%
CCOc1ccccc1NC(=O)C(C)Sc1nc(-c2ccccc2)c(C#N)c(=O)[nH]1 (centres undefined) -11.9%
COc1ccccc1NC(=O)c1oc2ccccc2c1NC(=O)c1ccccc1C(F)(F)F -24.5%
Cc1cc2nc(-c3ccc(OCc4ccc(F)cc4)cc3)cc(C(F)(F)F)n2n1 -4.52%
O=C(Nc1ccc(NC(=O)c2cccs2)cc1)c1cccc(Br)c1 -8.68%
CCCCOc1ccc(C(=O)NCCc2sc(-c3cccc(F)c3)nc2C)cc1 -4.25%
Cc1ccc(C)c(Cn2c(=O)n(Cc3ccc4c(c3)OCO4)c(=O)c3oc4ccccc4c32)c1 2.18%
Cc1nc2sc(C(=O)Nc3ccc(F)cc3)c(N)c2c(-c2ccc(Br)cc2)c1C(=O)Nc1ccc(Cl)cc1 -8.46%
CCc1cccc(NC(=O)c2cnc(SC)nc2-c2ccccc2)c1 2.01%
CCOc1ccc(/C=C/c2nc(C#N)c(NC(C)CC)o2)cc1 (centres undefined) -11.5%
CCOc1ccc(Sc2cc(C(=O)NC(C)CC)c3ccccc3n2)cc1 (centres undefined) -6.91%
O=C(Cn1ncc2c3ccccc3n(Cc3ccc(Cl)cc3)c2c1=O)NCc1cccs1 -10.2%
COc1ccc(N2CCN(S(=O)(=O)c3ccc(OC)c(-c4noc(C)n4)c3)CC2)cc1 -18.2%
COc1ccc(-c2cn3nc(N4CCC(C(=O)Nc5cccc(OC)c5)CC4)sc3n2)cc1 3.31%
CC1CN(C(=O)N2CCC(C(=O)NCCC3=CCCCC3)CC2)c2cc(Cl)ccc2O1 (centres undefined) -8.41%
Cc1ccc(C2CC(=O)N(Cc3ccccc3)c3c2c(C)nn3-c2nc(C)cc(C)n2)cc1 (centres undefined) -9.34%
COc1ccc(NC(=O)CSc2nc3ccncc3[nH]2)c(OC)c1 -11.9%
Cc1cc(NC(=O)CSc2nc3c([nH]c4ccccc43)c(=O)n2-c2ccccc2)no1 -0.0292%
O=c1cc(-c2ccc(F)cc2)nc(SCc2nc(-c3cccc(Cl)c3)no2)[nH]1 5.51%
O=C(C1CCCN(S(=O)(=O)c2ccc(Br)s2)C1)N1CCN(c2ccc(F)cc2)CC1 (centres undefined) -1.15%
CCc1ccc(NC(=O)c2ccc(F)c(S(=O)(=O)N(C)C3CCCCC3)c2)cc1 3.27%
CCc1ccc(NC(=O)CSc2nccn2-c2cccc(C)c2C)cc1 -41.8%
Cc1ccc(C)n1-c1c(C(=O)NCCCN2CCN(c3ccc(F)cc3)CC2)sc2ncccc12 -10.9%
O=C(C1CCN(S(=O)(=O)Cc2ccccc2)CC1)N1CCN(c2ccc(F)cc2)CC1 -22.9%
Cc1ccc(Cl)cc1-n1ncc2c(NCCCn3ccnc3)ncnc21 -19.8%
Cc1ccc2c(=O)cc(C(=O)Nc3sc4c(c3C(N)=O)CCCC4)oc2c1 -24.2%
Cc1ccc2oc(-c3cc(NC(=O)c4ccc5c(c4)OCCO5)cc(C)c3O)nc2c1 -7.6%
COc1cc(NC(=O)c2nc3ccccc3nc2C)cc(OC)c1OC -12.3%
COc1ccc(C2C(=O)N(C3CCCCC3)CC(=O)N2CCc2ccc(OC)c(OC)c2)cc1 (centres undefined) -3.59%
Cc1ccc(C)c(CN2C(=O)C3(c4ccccc42)N(c2cccc(C(F)(F)F)c2)C(=O)CS3(=O)=O)c1 (centres undefined) 11.7%
Cc1ccc(Cl)cc1N1CCN(C(=O)c2cccn3c(=O)c4cc(Cl)ccc4nc23)CC1 -2.91%
Cc1ccccc1OCc1ccc(-c2nc(C#N)c(N3CCN(C)CC3)o2)o1 -28.7%
Cc1ccc(-n2nc(C(=O)Nc3ccc(Cl)cn3)c3c4ccccc4n(C)c3c2=O)cc1 -18.1%
CC1=C(C(=O)OCC(C)C)C(c2ccc(OCc3ccccc3)cc2)N2C(=O)CCSC2=N1 (centres undefined) -11.9%
COc1cc(CN(C(=O)c2cccc(Cl)c2)c2ccccn2)cc(OC)c1OC -31.1%
CCC(C(=O)N1CCN(c2ccccc2F)CC1)n1nc(C)c2sc3ccccc3c2c1=O (centres undefined) -8.76%
COc1ccc(NC(=O)CCn2nc(-c3ccccc3OC)c3c(C)cc(C)nc32)cc1 -28.5%
Cc1c(C(=O)OCC2CCCCC2)[nH]c2c1C(=O)CC(c1ccc(Cl)cc1)C2 (centres undefined) -15.2%
Cc1nnsc1C(=O)Oc1ccc(C(C)C)cc1 -18.7%
Cc1cccc(NC(=O)CSc2nc(C3CCCC3)nc3c2c(=O)n(C)c(=O)n3C)c1C -0.532%
COc1cccc(CNC(=O)C(NS(=O)(=O)c2ccc3c(c2)oc(=O)n3C)C(C)C)c1 (centres undefined) -16.7%
COc1ccc2c(c1)-c1nc(NC(=O)c3ccccc3F)sc1CC2 -29.2%
CCN(CC)C(=O)c1sc2c(c1C)c(=O)n(-c1ccc(C)c(C)c1)c(=O)n2Cc1cc(=O)n2c(C)cccc2n1 -5.09%
CCn1c(=O)cc(OCC(=O)NCc2ccccc2Cl)c2ccccc21 -9.05%
COc1ccccc1NC(=O)Cn1c(=O)n(CCc2ccccc2)c(=O)c2c3c(sc21)CN(C(C)=O)CC3 -3.48%
Cc1nnc(SCc2nc(-c3ccc(Cl)cc3)no2)n1-c1ccc(F)cc1 0.612%
COc1ccc(CNC(=O)CSc2ncc3c(n2)-c2cc(Cl)ccc2N(Cc2ccccc2)S3(=O)=O)cc1OC -1.8%
CCC(=O)OCc1cnc(C)c2oc(=O)c(C(=O)Nc3ccccc3C(F)(F)F)cc12 -14.3%
O=c1cc(-c2ccccc2)nc2cc(-c3ccc(F)cc3)[nH]n12 -0.315%
Cc1ccc(S(=O)(=O)N2CCc3cc(C(=O)Nc4ccc(C)c(C)c4)ccc32)cc1 -10.1%
Cc1cccc(N(C)C(=O)CN(C)S(=O)(=O)c2ccc3[nH]c4c(c3c2)CCCC4)c1 -1.03%
COc1cc2ccccc2cc1C(=O)Nc1cc(-c2nc3ccccc3o2)ccc1C -9.97%
Cc1ccc(Cn2cc(/C=C(/C#N)C(=O)Nc3cccc(Cl)c3)c3ccccc32)cc1 -14.2%
O=C(c1ccccc1)n1nc(-c2ccco2)nc1NCc1cccs1 -6.36%
O=C(CCSCc1ccccc1F)N1CCN(c2ccc(Cl)cc2)CC1 -19.5%
COc1ccc(-c2nc3ccccc3o2)cc1NC(=O)CSc1ccc(Cl)cc1 -11.3%
COc1ccc(OC)c(CCNC(=O)CN2C(=O)COc3ccc(S(=O)(=O)N4CCC(C)CC4)cc32)c1 -3.52%
COc1ccc(CC(=O)Nc2c(C(=O)Nc3ccc(F)cc3)oc3ccccc23)cc1OC -9.68%
CCCCNc1nc(Oc2ccc(OCCC)nn2)nc(N(C)C)n1 -11.5%
COc1ccc(-n2c(/C=C/c3cccc4ccccc34)nc3ccccc3c2=O)cc1Cl -11.3%
COc1cc2c(C(=O)Nc3ccc(C)cc3Br)cn(C)c(=O)c2cc1OC -2.89%
CCOC(=O)c1ccc(NC2=CC(c3ccc(O)c(OCC)c3)N(c3ccc(C(=O)OCC)cc3)C2=O)cc1 (centres undefined) -3.23%
CCCN1CCN(CCNC(=O)Nc2cc(C)ccc2OC)CC1 -15.8%
CCC1CCCCN1CCCNC(=O)c1c(O)nc2c(C)cccn2c1=O (centres undefined) -12%
Cc1ccccc1C(=O)Nc1nnc(S(=O)(=O)N(C)Cc2ccc(Cl)cc2)s1 -38.3%
N#Cc1ccccc1Cn1c(=O)n(CCCCC(=O)NCc2ccc3c(c2)OCO3)c(=O)c2ccccc21 -5.54%
Cc1ccc(CNC(=O)c2nc(-c3ccc(Cl)cc3)n3c2CCCCC3)cc1 -18%
O=C(Cc1ccc(F)cc1)N1CCC(c2nc3c(nnn3Cc3ccc(F)cc3)c(=O)[nH]2)CC1 -1.29%
CCCn1c(=O)c2sccc2n2c(CCCC(=O)Nc3ccccc3OCC)nnc12 -18.4%
Cc1ccc(CN(C(=O)COc2ccc(C(C)C)cc2)C2CCS(=O)(=O)C2)o1 (centres undefined) 0.312%
COc1ccc(CC(=O)N2CC(=O)Nc3ccc(Br)cc3C2c2ccc(F)cc2)cc1 (centres undefined) -23.5%
CCn1cc2nc(SCc3ccc(C)cc3)n(CCc3ccccc3)c(=O)c2n1 -2.89%
Cc1ccc(OCC(=O)Nc2ccc(Cl)c(-c3nc4ccccc4[nH]3)c2)cc1C -8.18%
COc1ccc(S(=O)(=O)N(CC(=O)N(C)Cc2ccccc2)c2ccc(Cl)cc2)cc1 -9.46%
Cc1cccc(OCC(=O)Nc2ccc(-c3nc4cc(C)ccc4o3)c(O)c2)c1 -34.8%
CCC1CN(C(=O)N2CCC(C(=O)NCCC3=CCCCC3)CC2)c2cc(C)ccc2O1 (centres undefined) -14.8%
COc1ccc(NC(=O)CSc2nnc(NC(=O)Nc3ccccc3)s2)c(OC)c1 -9.11%
COc1cc(Cc2cnc(N)nc2N)cc(OC)c1OC -9.65%
COc1ccc(Cn2c(=O)[nH]c3cc(C(=O)N4CCN(c5cccc(OC)c5)CC4)ccc3c2=O)cc1 -10.5%
CC1CCCN(c2cc3c(cc2F)c(=O)c(S(=O)(=O)c2cccc(Cl)c2)cn3C)C1 (centres undefined) -14.7%
Cc1cc(C)cc(NC(=O)N2CCN3CCCCC3C2)c1 (centres undefined) -11.1%
CC(C)(C)c1ccc(C(=O)NC(Cc2c[nH]c3ccccc23)C(=O)OCC(=O)c2ccccc2)cc1 (centres undefined) -17.8%
CCOC(=O)c1ccc(NC(=O)c2c(NCc3sccc3C)sc3c2CCCCC3)cc1 -16.4%
O=C(NC1CCCCC1)c1c[nH]c2ccc(S(=O)(=O)Nc3ccccc3F)cc2c1=O -7.88%
Cn1cc(C(=O)NCc2ccc(Cl)cc2)c(=O)c2cc(S(=O)(=O)N3CCCCCC3)ccc21 -16.2%
Cc1cc(C)c2c(n1)SCCN2C(=O)Nc1ccc(C(=O)Nc2cc(Cl)ccc2C)cc1 -15.4%
